{
  "source": "paper PMC4336329",
  "about": "(PLoS ONE, 2015)",
  "note": "Hit rate of the full screen: of about 310,000 compounds, about 14,000 (4.5%) showed an effect of 50% or more. Effects have a minus sign here. The list shows a part of the results.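 Note: peak tail current of the secondary pulse compared with the same well before compound.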",
  "data": [
    {"target": "human ether-à-go-go-related gene (hERG) potassium channel (human, UniProt Q12809)", "sequence (Q12809 whole entry, looked up)": "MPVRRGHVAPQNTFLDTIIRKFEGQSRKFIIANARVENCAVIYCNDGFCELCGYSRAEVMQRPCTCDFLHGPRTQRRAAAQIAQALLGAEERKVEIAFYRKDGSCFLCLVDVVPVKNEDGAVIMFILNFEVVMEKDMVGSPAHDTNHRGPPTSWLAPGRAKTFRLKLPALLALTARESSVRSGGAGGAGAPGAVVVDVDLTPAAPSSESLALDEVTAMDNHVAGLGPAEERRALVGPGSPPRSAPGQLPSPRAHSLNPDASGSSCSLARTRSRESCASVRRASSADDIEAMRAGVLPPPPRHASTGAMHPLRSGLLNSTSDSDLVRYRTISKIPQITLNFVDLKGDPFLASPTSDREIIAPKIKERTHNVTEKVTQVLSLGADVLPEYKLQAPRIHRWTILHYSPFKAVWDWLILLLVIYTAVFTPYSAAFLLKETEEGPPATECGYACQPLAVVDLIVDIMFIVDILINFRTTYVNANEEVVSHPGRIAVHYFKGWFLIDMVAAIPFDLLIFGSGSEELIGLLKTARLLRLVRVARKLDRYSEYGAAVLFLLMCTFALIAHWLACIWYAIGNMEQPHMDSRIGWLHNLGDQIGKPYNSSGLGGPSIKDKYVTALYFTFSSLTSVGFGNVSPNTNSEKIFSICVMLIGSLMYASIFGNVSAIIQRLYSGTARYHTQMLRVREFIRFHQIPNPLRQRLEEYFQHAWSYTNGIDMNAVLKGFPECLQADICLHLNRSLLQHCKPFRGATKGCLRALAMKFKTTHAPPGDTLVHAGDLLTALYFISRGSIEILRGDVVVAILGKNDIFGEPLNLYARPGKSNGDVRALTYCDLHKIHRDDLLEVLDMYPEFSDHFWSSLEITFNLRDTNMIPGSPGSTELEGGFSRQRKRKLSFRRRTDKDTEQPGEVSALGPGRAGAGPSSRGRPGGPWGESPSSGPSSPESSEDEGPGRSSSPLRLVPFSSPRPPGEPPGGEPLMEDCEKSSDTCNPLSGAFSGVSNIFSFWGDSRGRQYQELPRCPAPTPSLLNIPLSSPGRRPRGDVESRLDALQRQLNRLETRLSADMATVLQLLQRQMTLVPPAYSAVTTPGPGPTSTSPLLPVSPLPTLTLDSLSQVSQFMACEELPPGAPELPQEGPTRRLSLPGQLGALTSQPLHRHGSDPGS", "assay": "primary screen, population patch clamp on CHO cells stably expressing hERG", "units": {"hERG current change (%, negative = inhibition) at 10uM": "%"}, "values": [
      {"compound": "CN(CC(=O)Nc1cccc(F)c1)C(=O)c1cccc2ccccc12", "hERG current change (%, negative = inhibition) at 10uM": -2.09},
      {"compound": "Cc1oc(-c2ccccc2)nc1CS(=O)CC(=O)NC1CCCC1", "note": "(stereo not shown)", "hERG current change (%, negative = inhibition) at 10uM": 8.65},
      {"compound": "OC(CNCCC1C=Nc2ccccc21)Cn1c2ccc(Cl)cc2c2cc(Cl)ccc21", "note": "(stereo not shown)", "hERG current change (%, negative = inhibition) at 10uM": 0.87},
      {"compound": "CCOc1cc(/C=C2/NC(=O)NC2=O)cc(Br)c1OCc1ccc(C(=O)O)cc1", "hERG current change (%, negative = inhibition) at 10uM": 2.95},
      {"compound": "CC(=O)N/N=C/c1cc(C)n(-c2ccc(Br)cc2)c1C", "hERG current change (%, negative = inhibition) at 10uM": -19.1},
      {"compound": "CC(/C=C1\\SC(=S)N(NC(=O)c2ccc(C)cc2)C1=O)=C\\c1ccccc1", "hERG current change (%, negative = inhibition) at 10uM": 6.71},
      {"compound": "CCC(=O)Nc1cccc(C(=O)c2ccc(C)c(C)c2)c1", "hERG current change (%, negative = inhibition) at 10uM": -11.6},
      {"compound": "COC(=O)CCCC1=CC2=C(c3ccccc3)C(=O)C(C)(OC(=O)C3CCCC3)C(=O)C2=CN1CCc1c[nH]c2ccccc12", "note": "(stereo not shown)", "hERG current change (%, negative = inhibition) at 10uM": 3.36},
      {"compound": "CCc1ccc(CNC(=O)c2ccc(OC)c(OC3CCN(C(C)C)CC3)c2)nc1", "hERG current change (%, negative = inhibition) at 10uM": -7.31},
      {"compound": "Cc1ccc(NC(=O)C2COc3ccccc3O2)c(C)c1", "note": "(stereo not shown)", "hERG current change (%, negative = inhibition) at 10uM": 14.2},
      {"compound": "Cc1c(Cl)cccc1NC(=O)C(=O)NNS(=O)(=O)c1ccc(F)cc1", "hERG current change (%, negative = inhibition) at 10uM": 10.9},
      {"compound": "O=S(=O)(c1cc(F)ccc1F)N1CCC2(CC1)OCCN2S(=O)(=O)c1cccs1", "hERG current change (%, negative = inhibition) at 10uM": -12.7},
      {"compound": "COC(=O)c1ccc(COc2ccc(/C=N/NC(=O)C(=O)Nc3ccc(OC)cc3)cc2OC)o1", "hERG current change (%, negative = inhibition) at 10uM": 8.1},
      {"compound": "CN(C)c1ccc(/C=N\\NC(=O)c2ccc(Cn3cc(Cl)cn3)cc2)cc1", "hERG current change (%, negative = inhibition) at 10uM": -1.4},
      {"compound": "COc1cc(OC)c(NS(=O)(=O)c2c(C)[nH]c(=O)[nH]c2=O)cc1Cl", "hERG current change (%, negative = inhibition) at 10uM": 20},
      {"compound": "COc1ccccc1NC(=O)COC(=O)COc1ccccc1F", "hERG current change (%, negative = inhibition) at 10uM": -0.741},
      {"compound": "Cc1ccccc1CC1(CO)CCCN(C(=O)c2cc(Cl)ccc2F)C1", "note": "(stereo not shown)", "hERG current change (%, negative = inhibition) at 10uM": -16.5},
      {"compound": "COCCCn1c(-c2ccccc2Cl)n[nH]c1=S", "hERG current change (%, negative = inhibition) at 10uM": 19.5},
      {"compound": "COc1ccccc1NC(=O)NC1CC(=O)N(c2ccc3c(c2)OCCO3)C1", "note": "(stereo not shown)", "hERG current change (%, negative = inhibition) at 10uM": -9.02},
      {"compound": "Cc1ccc(S(=O)(=O)Nc2ccnc3ccccc23)cc1", "hERG current change (%, negative = inhibition) at 10uM": -4.28},
      {"compound": "CCCCn1c(N)c(Sc2ccc(Cl)cc2)c(=O)[nH]c1=O", "hERG current change (%, negative = inhibition) at 10uM": -18.8},
      {"compound": "Cc1ccc(CNC(=O)c2ccc(Cn3cc(-c4ccc(C)cc4)nc3-c3ccncc3)cc2)cc1", "hERG current change (%, negative = inhibition) at 10uM": 5.94},
      {"compound": "COc1ccc(C2=NN(C(=O)c3ccncc3)C(c3ccccc3O)C2)cc1", "note": "(stereo not shown)", "hERG current change (%, negative = inhibition) at 10uM": -10.4},
      {"compound": "Cc1cc(OCC(=O)Nc2ccncc2)ccc1[N+](=O)[O-]", "hERG current change (%, negative = inhibition) at 10uM": -41.4},
      {"compound": "Cc1cccc(Cl)c1OCCN1CCCC1.O=C(O)C(=O)O", "hERG current change (%, negative = inhibition) at 10uM": -13.3},
      {"compound": "CCC1SC2=NC(C)=C(C(=O)OC)C(c3ccc(C)cc3)N2C1=O", "note": "(stereo not shown)", "hERG current change (%, negative = inhibition) at 10uM": 1.17},
      {"compound": "CCC(C)C(NC(=O)c1ccccc1NC(=O)c1ccco1)C(=O)NNC(=O)c1ccc(OC)cc1", "note": "(stereo not shown)", "hERG current change (%, negative = inhibition) at 10uM": 3.97},
      {"compound": "C=CCN(c1ccc(C(=O)N2CCCC2)cc1)S(C)(=O)=O", "hERG current change (%, negative = inhibition) at 10uM": -2.5},
      {"compound": "CC(=NC1CCN(Cc2ccccc2)CC1)c1c(O)n(C)c(=O)n(C)c1=O", "hERG current change (%, negative = inhibition) at 10uM": -39.1},
      {"compound": "CC(=O)c1cccc(Nc2nc(-c3cccc([N+](=O)[O-])c3)cs2)c1.Cl", "hERG current change (%, negative = inhibition) at 10uM": 0.359},
      {"compound": "CCOc1ccc(N(Cc2ccc(OC)c(OC)c2)C(=O)c2ccco2)cc1", "hERG current change (%, negative = inhibition) at 10uM": -2.67},
      {"compound": "Cc1nn(CC(=O)NC(=O)NC2CCCC(C)C2C)c(=O)c(C#N)c1C", "note": "(stereo not shown)", "hERG current change (%, negative = inhibition) at 10uM": -11.6},
      {"compound": "COC(=O)c1ccc(/C=N/N2CCN(Cc3ccc(C)cc3C)CC2)cc1", "hERG current change (%, negative = inhibition) at 10uM": 5.11},
      {"compound": "Cc1ccccc1C1CC(c2cccs2)Nc2nnnn21", "note": "(stereo not shown)", "hERG current change (%, negative = inhibition) at 10uM": -7.42},
      {"compound": "Cc1cccc(NC(=S)NN2CCN(C)CC2)c1C", "hERG current change (%, negative = inhibition) at 10uM": 8.29},
      {"compound": "CCOC(=O)c1cnc(Cc2ccccc2)[nH]c1=O", "hERG current change (%, negative = inhibition) at 10uM": 9.93},
      {"compound": "COc1cccc(C(=O)NCCNC(=O)c2ccccn2)c1", "hERG current change (%, negative = inhibition) at 10uM": 13.1},
      {"compound": "Cc1ccc2nnc(Cl)n2n1", "hERG current change (%, negative = inhibition) at 10uM": 12.9},
      {"compound": "CCOc1cc(/C=N/NC(=O)Cn2nc([N+](=O)[O-])cc2C)cc(Br)c1OCc1ccccc1C", "hERG current change (%, negative = inhibition) at 10uM": 10},
      {"compound": "C=CCn1c(Oc2cc(C)ccc2C)nc2c1c(=O)n(C)c(=O)n2C", "hERG current change (%, negative = inhibition) at 10uM": -14},
      {"compound": "COc1ccc(/C=C(\\C#N)C(=O)NC(C)c2ccccc2)cc1O", "note": "(stereo not shown)", "hERG current change (%, negative = inhibition) at 10uM": -24.2},
      {"compound": "CC(=O)NS(=O)(=O)c1ccc(NC(=O)c2ccccc2F)cc1", "hERG current change (%, negative = inhibition) at 10uM": -3.06},
      {"compound": "COc1ccc(-c2cc3cc(OC)c(OC)cc3c(C)n2)cc1", "hERG current change (%, negative = inhibition) at 10uM": 18.1},
      {"compound": "CCC1CCc2sc(C(=O)NNC(=S)NCC3CCCO3)cc2C1", "note": "(stereo not shown)", "hERG current change (%, negative = inhibition) at 10uM": 24.1},
      {"compound": "CCOC(=O)/C(=N\\Nc1cccc(Cl)c1)Sc1nnc(-c2ccc(OC)cc2)n1C", "hERG current change (%, negative = inhibition) at 10uM": -24.4},
      {"compound": "O=C(O)CCN1C(=O)c2ccc(NC(=O)c3cccs3)cc2C1=O", "hERG current change (%, negative = inhibition) at 10uM": 10.7},
      {"compound": "C/C(=N\\NC(=S)NCC(C)(C)C)c1cc(F)cc(F)c1O", "hERG current change (%, negative = inhibition) at 10uM": 17.2},
      {"compound": "Cc1ccc(S(=O)(=O)N(C)C)cc1NC(=O)COC(=O)CC1CCCC1", "hERG current change (%, negative = inhibition) at 10uM": -74.2},
      {"compound": "Cc1c(C=O)c(Cl)n(C)c(=O)c1C#N", "hERG current change (%, negative = inhibition) at 10uM": 22.6},
      {"compound": "CCOC(=O)C1CCCN(C(=O)C2CCCN(S(=O)(=O)c3ccc4c(c3)oc(=O)n4C)C2)C1", "note": "(stereo not shown)", "hERG current change (%, negative = inhibition) at 10uM": -22.8},
      {"compound": "Cc1nc(=O)c(-c2ccccc2)c(C)n1Cc1ccccc1", "hERG current change (%, negative = inhibition) at 10uM": 10.4},
      {"compound": "Cn1ncc(Br)c1C(=O)N1CCc2ccccc21", "hERG current change (%, negative = inhibition) at 10uM": 1.62},
      {"compound": "COc1cc(OC)cc(C(=O)OCC(=O)c2ccc(S(=O)(=O)N3CCCCC3)cc2)c1", "hERG current change (%, negative = inhibition) at 10uM": -7.77},
      {"compound": "Cc1ccc2oc3c(c(=O)c2c1)C(c1cccc(O)c1)N(c1ccccn1)C3=O", "note": "(stereo not shown)", "hERG current change (%, negative = inhibition) at 10uM": 6.49},
      {"compound": "C=CCNC(=O)c1ccc(CN(c2ccc(OCC)cc2)S(=O)(=O)c2ccc(C)cc2)cc1", "hERG current change (%, negative = inhibition) at 10uM": -62}
    ]}
  ]
}
